Experiments:
[1] = tested on: K-Ras mutant and K-Ras WT cell lines indicated in Table 20; assay: 2D cell growth inhibition assay (CellTiter-Glo, 6 days); format: cell-based
Description: Each of cells in culture medium was plated in TC-treated 96-well plates at a density indicated in Table 20 and incubated in a cell incubator overnight.

[2] = tested on: K-Ras mutant and K-Ras WT cell lines indicated in Table 20; assay: 3D cell growth inhibition assay (CellTiter-Glo 3D, 6 days); format: cell-based; details: 144 h
[3] = Mouse pharmacokinetic study; format: in vivo; details: female, Balb/c mouse, single dose 10 mg/kg, po, plasma; for AUC(0-t): read-out: AUC0-8h; for Cmax: read-out: Cmax
Description: The purpose of this study was to evaluate the pharmacokinetic properties of compounds in Balb/c mouse (♀) following single dose administration. Six mice were needed for each compound and the six mice were divided into two groups (n=3/group), group A and group B. Mice in group A were treated with a single 3 mg/kg dose of compound (iv). Mice in group B were treated with a single 10 mg/kg dose of compound (po). For each mouse in group A, blood samples were collected at the time point of 0.083, 0.5, 1, 2, 4 and 8 h post-dose. For each mouse in group B, blood samples were collected at the time point of 0.5, 1, 2, 4, 6 and 8 h post-dose. Blood samples were placed on ice until centrifugation to obtain plasma samples. The plasma samples were stored at −80° C. until analysis. The concentration of compound in plasma samples was determined using a LC-MS/MS method.
For the prodrug, only the oral PK study was performed and the dosage was adjusted to be equal to 10 mg/kg of parent drug. The concentrations of both prodrug and parent drug in plasma were determined using a LC-MS/MS method.

[4] = Homo sapiens, ASPC1, 144 h, AsPC-1 (K-Ras G12D), absolute IC50, read-out: Cell Growth Inhibition, IC50, AsPC-1
[5] = Homo sapiens, SW-620, 144 h, SW620 (K-Ras G12V), absolute IC50, read-out: Cell Growth Inhibition, IC50, SW620

| SMILES | IC50 [1, 4] [nM] | IC50 [1, 5] [nM] | IC50 ([2]; TCC-PAN2 (K-Ras G12R), absolute IC50, read-out: Cell Growth Inhibition, IC50, TCC-PAN2) [nM] | IC50 ([2]; Homo sapiens, NCI-H358 (K-Ras G12C), absolute IC50, read-out: Cell Growth Inhibition, IC50, NCI-H358) [nM] | IC50 ([2]; Homo sapiens, NCI-H460 (K-Ras Q61H), absolute IC50, read-out: Cell Growth Inhibition, IC50, NCI-H460) [nM] | AUC(0-t) [3] [ng·h/mL] | Cmax [3] [ng/mL] | IC50 ([1]; 144 h, AGS (K-Ras G12D), absolute IC50, read-out: Cell Growth Inhibition, IC50, AGS) [nM] |
| --- | --- | --- | --- | --- | --- | --- | --- | --- |
| C#Cc1c(F)ccc2cc(O)cc(-c3ncc4c(N(C)[C@@H]5C[C@H]5F)nc(OC[C@@]56CCCN5C[C@H](OC)C6)nc4c3F)c12 (mixture of isomers) [Compound 5, 5-ethynyl-6-fluoro-4-(8-fluoro-4-((trans-2-fluorocyclopropyl)(methyl)amino)-2-(((2R,7aS)-2-methoxytetrahydro-1H-pyrrolizin-7a(5H)-yl)methoxy)pyrido[4,3-d]pyrimidin-7-yl)naphthalen-2-ol] | 467 | 14.1 | > 1000 | 165 | > 1000 | 168 | 91.3 |  |
| C#Cc1c(F)ccc2cc(O)cc(-c3ncc4c(N(C)[C@@H]5C[C@H]5F)nc(OC[C@@]56CCCN5C[C@H](F)C6)nc4c3F)c12.O=C(O)C(F)(F)F (single isomer, unassigned) [Compound 3] | 78.4 | 4.32 |  |  |  | 3150 | 947 | 12 |

From US20240376128A1, “N-CYCLOPROPYLPYRIDO [4, 3-D] PYRIMIDIN-4-AMINE DERIVATIVES AND USES THEREOF” (Jacobio Pharmaceuticals Co., Ltd., priority 2021, published 2024)
